The list shows a part of the results.
tested on: T1, Caupolican (Caup) homeodomain DNA-binding domain; experiment: PBM E-score (8-mer, recovered from the published 9-mer minima) (E-score (dimensionless, -0.5 to 0.5)); Drosophila protein; higher = stronger relative binding preference, active = 0.31 or more
T1 sequence: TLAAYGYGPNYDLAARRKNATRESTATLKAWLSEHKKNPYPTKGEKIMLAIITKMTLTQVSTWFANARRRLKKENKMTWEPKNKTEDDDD
How it was run: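 An enrichment score, with higher meaning stronger, expresses relative binding preference for each short DNA word. The protein used was Caup's homeodomain DNA-binding domain (residues 214-303), produced by in vitro transcription and translation and tested at 100 nM on custom-designed protein binding microarrays. The 8-mer values were recovered from published 9-mer scores, each equal to the lower of its two constituent 8-mer scores.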

Sequence	PBM E-score
CGGTCTGA	inactive: -0.0584
AATATCGG	inactive: 0.0331
GTTGCCAA	inactive: 0.0175
GGGCGATA	inactive: -0.0779
CAGATAAA	inactive: 0.0646
TCAGACAA	inactive: 0.185
AAACCCGG	inactive: -0.123
AATTTCTA	inactive: 0.0285
GTGCCCCA	inactive: -0.179
GACCACCA	inactive: -0.0619
AGGTCTTC	inactive: -0.0685
GATCTTTA	inactive: 0.00911
ATTGGATG	inactive: 0.183
AAAATCAT	inactive: 0.182
ATGTCCTG	inactive: 0.223
AATGGAGT	inactive: -0.0641
ACCTAGCT	inactive: -0.0673
AAGATCAC	inactive: 0.0799
GCCAGGTA	inactive: -0.0274
CCAGGCTC	inactive: -0.116
CCGGGTTC	inactive: -0.169
GAGAGCCA	inactive: -0.127
TATCCGAA	inactive: 0.03
GTCGCGAA	inactive: 0.00326
ACCGACAT	inactive: 0.307

Sequence	PBM E-score
ACCAAACC	inactive: 0.0399
CGAACAGA	inactive: 0.126
GAAGATCA	inactive: 0.0158
GCGATGCA	inactive: -0.136
AACTATAC	inactive: 0.14
AACGTTAC	inactive: 0.1
GGGTGACC	inactive: -0.223
CCTGGGAG	inactive: -0.195
CGAGGATC	inactive: -0.0233
AAGGGCTA	inactive: -0.0555
AGGCGCTA	≥ -0.0508
ACGCACAG	inactive: -0.0279
CTTGCACC	inactive: -0.027
CACTCATG	inactive: 0.0716
CCGCCCAC	inactive: -0.192
GACATTCC	inactive: 0.186
CAAAACAA	inactive: 0.188
GGCGGGTA	inactive: -0.156
AAGGATGT	inactive: 0.185
AGTTCATC	inactive: 0.0305
AAGGATCC	inactive: -0.0547
AATGATTA	≥ 0.239
CGTCTCGA	inactive: 0.0714
GGCGACAC	inactive: 0.0375
GTCTATGA	inactive: 0.0569

Sequence	PBM E-score
CCGGCAAG	inactive: -0.146
AAATATTG	inactive: 0.0593
AGGCTAAA	inactive: -0.0788
CACCGTTA	inactive: 0.0313
CGCCATCC	inactive: -0.134
GTAAACAA	active: 0.321
GTGTCTTA	inactive: 0.17
ACCATAGT	inactive: 0.042
GCTATACA	inactive: 0.189
CACTCCAA	inactive: -0.071
ATAGCTCC	inactive: -0.0652
CAAAAGTC	inactive: -0.0435
ATGGGAAA	inactive: -0.0244
GAATAGTC	inactive: -0.00141
TATCCCCA	inactive: -0.0238
GCGTAATA	inactive: 0.076
AGTACGCG	inactive: -0.00986
GACTCGGC	inactive: -0.192
CTTCCGGA	inactive: -0.173
AAGATCCA	inactive: -0.0566
CTTTCTTA	inactive: 0.0085
GTTCAATA	inactive: 0.0594
AACCTCTG	inactive: -0.105
CCCTCCCA	≥ -0.108
AACAAGTA	active: 0.33

Sequence	PBM E-score
CCTGGGAC	inactive: -0.148
CGGGGTCA	inactive: -0.182
TGCGCCAA	inactive: -0.179
GGAAAGAA	inactive: -0.0877
ATGGTATA	inactive: 0.167
ACTGGGTC	inactive: -0.127
TGGCGCCA	inactive: -0.205
ATAACATC	active: 0.318
ACTACGCC	inactive: -0.114
CAATAGCA	inactive: 0.0185
CCCCTTAC	inactive: -0.119
AATTTACA	active: 0.328
AGTATACG	inactive: 0.0742
GTAATAGA	inactive: 0.151
ATTCTAAC	inactive: 0.113
AAAGAAAA	inactive: -0.0119
CGTCTCAA	inactive: -0.009
GCTTACGA	inactive: 0.00243
TAGATATA	inactive: 0.143
AGCCAGTA	inactive: -0.0899
AAATAAAA	inactive: 0.132
ACATTCAG	inactive: 0.00864
ATGATTAC	inactive: 0.211
CTTACCAC	inactive: 0.0149
GAGGAATC	inactive: -0.0831

Sequence	PBM E-score
AATACAAC	inactive: 0.305
AATAACCA	inactive: 0.0894
AGTCGGCC	inactive: -0.211
GGGTTTAA	inactive: 0.0764
CGCACGGC	inactive: -0.153
ATATAAAC	inactive: 0.228
GTCGGTAA	inactive: 0.0705
AGACAGCG	inactive: 0.00224
TCGGGCAA	inactive: -0.0851
GTTGCGAA	inactive: 0.0156
ACGCAAAT	inactive: 0.07
CGTGAAAC	inactive: -0.0302
GTGAGGAA	inactive: -0.0469
ACAATGAT	inactive: 0.193
CGACTTGC	inactive: -0.0587
TACAGCTA	inactive: 0.106
TCCACGAA	inactive: 0.04
CCCCACGA	inactive: -0.225
CATGAGGA	inactive: 0.0255
GACATTAA	inactive: 0.275
CCGTGCCC	inactive: -0.112
AGCTCCTC	inactive: -0.157
AACGATGC	inactive: -0.051
ATGTTGAA	inactive: 0.25
CTCAATGC	inactive: -0.0912

Sequence	PBM E-score
AGTTTCAA	inactive: 0.0314
AAACGAGT	inactive: 0.109
CGAAGGGC	inactive: -0.266
CCCAATTA	inactive: 0.0418
GAAGTGAC	inactive: 0.0523
CCACATGA	inactive: 0.124
AAAATATG	inactive: 0.152
GAAACGAA	inactive: 0.0205
CGGGACTA	inactive: -0.125
CTCACGTC	inactive: -0.0461
ACAGGATC	inactive: 0.0378
CGTGTGTC	inactive: 0.206
ATGCTTCG	inactive: 0.00705
GCCAATTA	inactive: 0.0901
ACGTTTAG	inactive: 0.0756
CTACAGGA	inactive: 0.245
CGGGCTCC	inactive: -0.283
AAATGATC	inactive: 0.0408
CAGGACCG	inactive: -0.129
CGGGCGGA	inactive: -0.231
AAAGATAA	inactive: 0.105
GGCCTTAC	inactive: -0.0957
ACCCTATA	inactive: -0.0217
ATTCCATC	inactive: 0.0883
AGGAAACT	inactive: 0.025

Sequence	PBM E-score
GGATGCGA	inactive: -0.0849
CTTATCAC	inactive: 0.0804
AAGAATTA	inactive: 0.112
GAAAGTCA	inactive: 0.00612
AAAGCCCA	inactive: -0.136
ATGATAGC	≥ 0.11
CAAAATTC	inactive: 0.144
CATCCCCG	inactive: -0.0904
GTCTAGAA	inactive: -0.0258
TATTTAGA	inactive: 0.125
CTGAAGGC	inactive: -0.235
ACCCGGAA	inactive: -0.0327
GACAAACA	active: 0.312
TGATGCAA	inactive: 0.128
ATCTGGTC	inactive: 0.0224
ACGTATAT	inactive: 0.164
CCCGAAAC	inactive: 0.00339
AATGCACT	inactive: 0.108
TACAAGCA	active: ≥ 0.384
CCATTGTA	inactive: 0.174
TGCCGACA	inactive: 0.0745
ATGCAAAG	inactive: 0.0646
AACGCGAC	inactive: 0.0514
ATTACCTC	inactive: 0.033
GCGTTAGA	inactive: -0.0888

Sequence	PBM E-score
AATTAACG	inactive: 0.0962
CAAACGCG	inactive: -0.0496
ATAGTCAG	inactive: 0.0549
GGGCTTCA	inactive: -0.177
CCGCTTTC	inactive: -0.204
AGCCGCAA	inactive: -0.206
GCACCAGA	inactive: -0.107
CACTCCTG	inactive: -0.0507
ACTGAAGC	inactive: -0.0346
TCACGAGA	inactive: 0.0378
CGACCTCG	inactive: -0.0567
ACAATAAT	inactive: 0.187
AAGAACGG	inactive: -0.103
AGAAGGCC	inactive: -0.251
AAGTCATC	inactive: -0.0589
CTACCGCC	inactive: -0.187
AAAAGTCC	≥ 0.0371
AAGAAGGT	≥ 0.0544
AGTCCACT	inactive: -0.0123
CGATTCTA	inactive: -0.0767
CTGCCAAA	inactive: -0.0727
AGATAGGG	inactive: -0.107
TGGAGGAA	inactive: -0.0989
CGATAAGC	inactive: -0.0419
ACCGGTAC	inactive: -0.00124

Sequence	PBM E-score
GAATGCAA	inactive: 0.095
AGACCAAG	inactive: -0.00436
ATGCGAAT	inactive: 0.047
GAAAATGA	inactive: 0.0722
AATAATGA	inactive: 0.127
AATAGATC	inactive: 0.0711
CGCGAGGC	inactive: -0.143
ACGGGCAC	inactive: -0.15
AACCTTAT	inactive: 0.0286
CCAGTCAA	inactive: -0.0187
AACGGATA	inactive: 0.0208
ACTCCGGA	inactive: -0.0149
TCTAAAGA	≥ 0.0413
CCTTAGCC	inactive: -0.134
CGGAATTA	inactive: 0.121
GGCCACCA	inactive: -0.166
GCGGTATA	inactive: -0.0365
CGTCCATA	inactive: -0.0481
ACACGAGT	≥ 0.27
AGAGCAAG	inactive: 0.0346
CCAAGCGG	inactive: -0.157
ACGATCCC	inactive: -0.0422
ACAATCGT	inactive: 0.207
GGTACTAA	inactive: 0.165
